Data published in a collection of fitness landscapes (doi:10.1016/j.celrep.2020.107928).
Over roughly 81,000 sequences, “one-hybrid fitness for binding NBS DNA” has its median near -0.1; the highest 2% begin near 0.36. The list shows a part of the results.

B1: Caulobacter ParB omega fusion; a variant is named by its letters at X, in order, B8GW30 (parent)
chain: MESVVVGEPGMSEGRRGLGRGLSALLGEVDAAPAQAPGEQLGGSREAPIEILQRNPDQPRRTFREEDLEDLSNSIREKGVLQPILVRPSPDTAGEYQIVAGERAWRAAQRAGLKTVPIMVRELDDLAVLEIGIIENVQRADLNVLEEALSYKVLMEKFERTQENIAQTIGKSXSHVANXMRLLXLPDEVQSYLVSGELTAXHARAIAAAADPVALAKQIIEGGLSVRETEALARKAPNLSAGKSKGGRPPRVKDTDTQALESDLSSVLGLDVSIDHRGSTGTLTITYATLEQLDDLCNRLTRGI

Variants of: B1
Assay: one-hybrid fitness for binding NBS DNA (the Noc-binding site; scaled: cognate 1, non-cognate 0); higher = stronger binding
Conditions: with NBS DNA site
In short: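 On M9-minus-histidine containing 0.1 mM IPTG and 5 mM 3-AT, E. coli USO cells with a HIS3 reporter, site 19 bp from the promoter, grew 48 hours at 37°C to select Caulobacter ParB libraries randomised at four specificity codons. Plasmids from before and after were Illumina-sequenced, with three replicate libraries pooled and variants under 10 reads left out. Fitness is the log change in variant-to-wild-type read ratio, rescaled against cognate and non-cognate.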

Variant | one-hybrid fitness for binding NBS DNA
PWEK | ≤ 0.2
SIAA | ≤ 0.2
HMLI | ≤ 0.2
ECPG | ≤ 0.2
VFVV | ≤ 0.2
CGTR | ≤ 0.2
HEIA | ≤ 0.2
RNFT | ≤ 0.2
RPVF | ≤ 0.2
SFAS | ≤ 0.2
NMPL | ≤ 0.2
GNGS | ≤ 0.2
QSIA | ≤ 0.2
AGIE | ≤ 0.2
DGER | ≤ 0.2
RIAI | ≤ 0.2
RMLY | ≤ 0.2
APRE | ≤ 0.2
RQRC | 0.307
EGGY | ≤ 0.2
WAPL | ≤ 0.2

Variant | one-hybrid fitness for binding NBS DNA
RYEG | ≤ 0.2
KAKS | ≤ 0.2
AVCT | ≤ 0.2
GHQC | ≤ 0.2
NVVW | ≤ 0.2
AKKY | ≤ 0.2
HCIR | ≤ 0.2
GKFG | ≤ 0.2
RTRH | 0.536
RHIT | 0.243
DFKC | ≤ 0.2
PDSL | ≤ 0.2
FRYT | ≤ 0.2
WHPS | ≤ 0.2
TLQS | ≤ 0.2
HPKI | ≤ 0.2
FESR | ≤ 0.2
EWTR | ≤ 0.2
TDTT | ≤ 0.2
KFCG | ≤ 0.2
RSAI | ≤ 0.2

Variant | one-hybrid fitness for binding NBS DNA
YMDG | ≤ 0.2
DRTE | ≤ 0.2
ISDC | ≤ 0.2
GERY | ≤ 0.2
WPVG | ≤ 0.2
YPRY | ≤ 0.2
AKHG | ≤ 0.2
GSLL | ≤ 0.2
EEAD | ≤ 0.2
VPSM | ≤ 0.2
SIMC | ≤ 0.2
ENMS | ≤ 0.2
DIIN | ≤ 0.2
ISHY | ≤ 0.2
EFFS | ≤ 0.2
PNLW | ≤ 0.2
RGDM | ≤ 0.2
SSWS | ≤ 0.2
SMIS | ≤ 0.2
VMHH | ≤ 0.2
QAWD | ≤ 0.2

Variant | one-hybrid fitness for binding NBS DNA
RDHV | ≤ 0.2
SCNF | ≤ 0.2
SKSF | ≤ 0.2
NHSP | ≤ 0.2
PFQY | ≤ 0.2
AGES | ≤ 0.2
MAGR | ≤ 0.2
DNSL | ≤ 0.2
AHNK | ≤ 0.2
VSRC | ≤ 0.2
EVQC | ≤ 0.2
RFCK | ≤ 0.2
GDLV | ≤ 0.2
RGFC | ≤ 0.2
YIHF | ≤ 0.2
RKHW | ≤ 0.2
TNRT | ≤ 0.2
ELEM | ≤ 0.2
QAHD | ≤ 0.2
PDNT | ≤ 0.2
GGLT | ≤ 0.2
